Data set [1] concerns B16 (melanoma) cells.
The subject of data set [2] is Mel-A (normal melanocyte) cells.
Data set [3] has the same test system. The data set can be described thus: cells. The note with it: read-out: IC50 Mel-A (normal melanocyte).
Data set [4] concerns B16 (melanoma) cells. The data set can be described thus: cells. The note with it: Mus musculus, read-out: IC50 B16 (melanoma).

The structures appear in SMILES notation. Where a name gives a salt, the structure may show the parent alone. Read-outs that look alike come from different tables or passages of the source.

With `Cl.Cl.Cl.NCCCCN(CCCCN)Cc1c2ccccc2cc2ccccc12` [Compound 8e, N-(4-Amino-butyl)-N-anthracen-9-ylmethyl-butane-1,4-diamine, trihydrochloride], the “IC50 ratio (35/8e), fold higher cytotoxicity than control 35 in B-16 cells” value in the data set with B16 (melanoma) cells [1] is reported as 10-32 fold. The “IC50 ratio (35/8e) in B-16 cells, worked example 19.25/1.93” value in the data set with B16 (melanoma) cells [1] (24 h) is 10. In the data set on B16 (melanoma) cells [1] (72 h values of Table 3), the “Mel-A/B16 IC50 ratio, worked example 6.49/0.62” value was 10.5. The “IC50 ratio (35/8e) in Mel-A cells, worked example 44.3/16.47” value in data set [2] (24 h) is 2.7. The “IC50 ratio (35/8e), fold higher cytotoxicity than 35 in Mel-A cells” value in data set [2] (mouse) was 2-4 fold. The IC50 worked out at 16.5 µM in data set [3] (24 h); 8.27 µM in data set [3] (48 h); 6.49 µM in data set [3] (72 h); 1.93 µM with B16 (melanoma) cells [4] (B16, 24 h); 1.1 µM in the data set with B16 (melanoma) cells [4] (B16, 48 h); 0.62 µM with B16 (melanoma) cells [4] (B16, 72 h).
On to `CCCCNCc1c2ccccc2cc2ccccc12` [Compound 35, N^1-Anthracen-9-ylmethyl-butylamine Monohydrochloride], for which the IC50 in data set [3] (72 h) is 15 µM; in the data set with B16 (melanoma) cells [4] (B16, 24 h) it was 19.2 µM; with B16 (melanoma) cells [4] (B16, 72 h), 20.4 µM.

For orientation: IC50 means the point on the concentration scale where inhibition reaches its midpoint.

Source of the values: patent publication US7728040B1, “Polyamine conjugates as selective NMDA inhibitors and anti-cancer drugs” (University of Central Florids Research Foundation, Inc., priority 2002, dated 2010).
